Earlier results, collected in patent US7605135B2 (priority 2003, dated 2009).

Conditions: boiling temperature (a typical extraction method); cited from earlier work

For baicalin, the Thermal stability is listed as “Stable at boiling temperature (a typical extraction method) [Han RJ et al.,”.
